In PubChem BioAssay AID1963968 (Molecular Pharmacology Branch, DTP, NCI, 2024) one finds viability, T/C and IC50 data, which are given here for 10 molecules.

A word on the viability, T/C: it is the result in the treated group divided by that in the control group, in per cent. Broadly, the IC50 is the concentration that inhibits the measured activity by half.

For part of its entries the source gives two or more results. This list holds those alone. The source may hold further records. Values given together are repeats (runs, samples, wells, individuals or studies).

In this test the test system is 945468-187-T-J3-PDC spheroids with HUVEC/MSC, viability. Put plainly: Anticancer human tumor 945468-187-T-J3-PDC patient-derived rectal carcinoma cell line growth inhibition [PI3K]. The conditions noted are these: for viability, T/C: stronger effect = lower value; for IC50: compound alone. The text has this:
Combinatorial screen of targeted agents with the PI3K inhibitors inavolisib, alpelisib, duvelisib, and copanlisib in multi-cell type tumor spheroids
A high-throughput screen of multi-cell type tumor spheroids was designed to identify active combinations of targeted small molecules and PI3K pathway inhibitors. Complex spheroids include a stromal component modeled by human endothelial cells (HUVEC) and fibroblasts modeled by human mesenchymal stem cells (MSCs). The concentration ranges selected for each drug and investigational agent were based upon clinically achievable concentrations if the clinical Cmax of the agent was known.
Compounds. The drugs and investigational agents: inavolisib (NSC800729), alpelisib (NSC765974), duvelisib (NSC772469), copanlisib (NSC816437), ipatasertib (NSC767898), afuresertib (NSC778305), talazoparib (NSC767125), sapanisertib (NSC764658), selumetinib (NSC741078), tovorafenib (DAY101, NSC766906), vemurafenib (NSC761431), ravoxertinib (NSC781343), sotorasib (NSC818433), MRTX1133 (NSC 836407), abemaciclib (NSC 768073), palbociclib (NSC758247), venetoclax (NSC 766270), SY5609 (NSC837396), enzalutamide (NSC755605), and darolutamide (NSC825331), were obtained from the National Cancer Institute (NCI) Developmental Therapeutics Program Chemical Repository. The FDA-approved anticancer drug set is available from the NCI Developmental Therapeutics Program. […] The stock solutions were prepared in dimethyl sulfoxide (DMSO, Sigma-Aldrich, St. Louis, MO, cat. D2650) at 800-fold the tested concentration and stored at -70 degrees C prior to their use. All drugs and investigational agents were tested over a range starting from a high concentration at or near the clinical Cmax and decreasing in half-log increments. If the clinical Cmax for an agent had not been determined, the highest concentration tested was 10 microM.
Cell Culture. All cells were maintained in an incubator at 37 degrees C and 5% CO2 with 95% humidity. The PDC lines were cultured according to standard operating procedures established by the NCI PDMR (https://pdmr.cancer.gov/sops/default.htm). All PDCs were thawed and cultured in Matrigel-coated flasks prepared with a working solution of 1X Ham's F-12 nutrient mix, without supplementation (Invitrogen, Waltham, MA, cat. 11765054), 100 U/mL penicillin-streptomycin (Invitrogen, cat. 15140122), and 2.5% Matrigel (Corning Inc., Corning, NY, cat. 354248) for the first three passages. The 354836-022-R-J1-PDC, 475296-252-R-J1-PDC, and 997726-040-R-J2-PDC lines were cultured in 6A media, which includes advanced DMEM/F-12 (Thermo Fisher Scientific, cat. 12634028), 10 mM HEPES (Thermo Fisher Scientific, cat. 15630080), 1X GlutaMAX supplement (Thermo Fisher Scientific, cat. 35050061), 0.1 mg/mL primocin (InvivoGen, San Diego, CA, cat. ant-pm-2), 10% defined fetal bovine serum, heat inactivated (HyClone Laboratories Inc., Logan, UT, cat. SH30070.03HI), 50% L-WRN conditioned media (ATCC, cat. CRL-3276), 1.25 mM N-Acetyl-L-cysteine (Sigma-Aldrich, cat. A9165), 10 mM nicotinamide (Sigma-Aldrich, cat. N0636), 1X B-27 supplement (Thermo Fisher Scientific, cat. 17504044), 1X N-2 supplement (Thermo Fisher Scientific, cat. 17502048), and 10 microM Y-27632 dihydrochloride (Tocris Bioscience, Bristol, United Kingdom, cat. 1254). The 624824-186-R-J2-PDC line was cultured in 6C/Colon 1B media, which includes all 6A media components plus 50 ng/mL human EGF recombinant protein (Thermo Fisher Scientific, cat. PHG0311). […]
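Note: spheroids exposed to agents for 7 days before viability read.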

For `Cn1cnc2c(F)c(Nc3ccc(Br)cc3Cl)c(C(=O)NOCCO)cc21`, the viability, T/C (compound alone 3 µM) is listed as 114, 105, 84.4, 89%.
Take `CC(Nc1ccc2c(c1)OCCn1cc(N3C(=O)OCC3C(F)F)nc1-2)C(N)=O` (stereo not drawn): the viability, T/C (compound alone 0.1 µM) is reported as 109, 104, 106, 114, 107, 88.9, 101%.
Take `CCCS(=O)(=O)Nc1ccc(F)c(C(=O)c2c[nH]c3ncc(-c4ccc(Cl)cc4)cc23)c1F`: the viability, T/C by setting is: (compound alone 0.316 µM) 114, 104, 90.7, 87.9%; (compound alone 10 µM) 19.4, 16.8, 29.4, 43.7%.
Consider `Cn1ncc(Cl)c1-c1cc(C(=O)NC(CN)Cc2cccc(F)c2)sc1Cl` (stereo not drawn), for which the concentration for half-maximal inhibition (IC50) was > 10 µM, 2.01 µM, 921 nM. Further, under “compound alone 1 µM”, the viability, T/C is 75.7, 82.9, 58, 47.6%.
As for `CC(C)n1nc(-c2ccc3oc(N)nc3c2)c2c(N)ncnc21`, the viability, T/C reads like this: (compound alone 0.0316 µM) 123, 110, 108, 94.8%; (compound alone 0.1 µM) 77, 68.5, 52.7, 47.8%.
Take `CC1(C)CCC(Nc2ncc(C(F)(F)F)c(-c3c[nH]c4c(P(C)(C)=O)c(C#N)ccc34)n2)CN1` (stereo not drawn): the viability, T/C (compound alone 0.1 µM) is 68.1, 82.9, 58, 43.4%; the viability, T/C (compound alone 0.316 µM) is on record as 71.8, 74, 57.5, 40%; the viability, T/C (compound alone 1 µM) was 87.8, 93.3, 57.9, 52.4%; the viability, T/C (compound alone 3.16 µM) was 84.4, 102, 82.8, 67.3%.
Take `CC(C)NCC(C(=O)N1CCN(c2ncnc3c2C(C)CC3O)CC1)c1ccc(Cl)cc1` (stereo not drawn): the concentration for half-maximal inhibition (IC50) is listed as > 10 µM, 6.22 µM, 5.57 µM, 4.64 µM. The viability, T/C (compound alone 0.1 µM) is recorded as 112, 103, 99, 84.9%.
`CNC(=O)c1ccc(N2C(=S)N(c3ccc(C#N)c(C(F)(F)F)c3)C(=O)C2(C)C)cc1F`: under “compound alone 1 µM”, the viability, T/C is given as 107, 118, 96, 91.2%.
Turning to `CC1(C)CCC(CN2CCN(c3ccc(C(=O)NS(=O)(=O)c4ccc(NCC5CCOCC5)c([N+](=O)[O-])c4)c(Oc4cnc5[nH]ccc5c4)c3)CC2)=C(c2ccc(Cl)cc2)C1`, the viability, T/C (compound alone 10 µM) is recorded as 12.8, 64.2, 109, 28.2%.
Take `Cn1nccc1Nc1nccc(-c2ccn(C(CO)c3ccc(Cl)c(F)c3)c(=O)c2)n1` (stereo not drawn): the viability, T/C (compound alone 0.316 µM) is given as 121, 104, 110, 95.5% and the viability, T/C (compound alone 10 µM) was 141, 123, 138, 115%.
